Experimental data: PubChem BioAssay AID651820 (National Center for Advancing Translational Sciences (NCATS), 2012)
About 12,000 (3.5%) of roughly 340,000 compounds were called active. Inconclusive means that the source gave no clear call. Such entries were picked first, then a sample of the others. Calls come from the whole dose curve; as a rule, active = well fitted inhibition curve with a large enough effect; inconclusive = small, poorly fitted or top-dose-only effect, or another doubt; inactive = no such curve, though single readings can be large or run the other way. Potencies of inconclusive entries are left out as doubtful fits.

Assay: qHTS Assay for Inhibitors of Hepatitis C Virus (HCV)
Conditions: Huh7.5.1 HCVcc-Cre (HCVcc is cell-culture hepatitis C virus) infection, luciferase reporter, 44 h; series mostly up to 41.8 µM
Excerpt: Hepatitis C virus (HCV) infects about 200 million people in the world. Many infected people progress to chronic liver disease including cirrhosis with a risk of developing liver cancer. To date, there is no effective vaccine for hepatitis C. Current therapy based on interferon is only effective in about half of the patients and is associated with significant adverse effects. The fraction of people with HCV who can complete a successful treatment is estimated to be no more than 10 percent. Recent development of direct-acting antivirals against HCV, such as protease and polymerase inhibitors, is promising but still requires combination with peginterferon and ribavirin for maximal efficacy. In addition, these agents are associated with high rate of resistance and many have significant side effects. Due to the lack of a culture system for infectious HCV, the search for new HCV drugs has been greatly hampered. […] High-throughput screening (HTS) with an infectious HCV system would cover the complete spectrum of potentially druggable targets in all stages of HCV lifecycle, and would have more biological relevance than other cell-based assays. Moreover, targeting several key processes in the viral life cycle may not only increase antiviral efficacy; more importantly, it may also reduce the capacity of the virus to develop resistance to the compound. The goal of this project is to identify novel HCV inhibitors as new therapies for hepatitis C, using a highly sensitive and specific assay platform which is based on a HCV infectious cell culture system established in the laboratory and adapted for high-throughput HCV drug screen. NIH Chemical Genomics Center [NCGC] NIH Molecular Libraries Probe Centers Network [MLPCN] MLPCN Grant: MH095511 Assay Submitter (PI): Jake Liang, NIDDK
The assay will start with plating 1,000 cells/well in 3 µL volume and culture for 4 h. Then 23 nL of compounds from the library collection will be added to each well, followed by adding 2.5 µL of HCVcc-Cre virus (~ 0.5 moi) and further cultured for 44 h before the luciferase assay. A volume of 4.5 µL luciferase substrates will be added to each well and the plates will be incubated at room temperature for 15 min. and then read for 15 sec. for the luciferase activity
Tags give direction and shape of the fitted curve.

| SMILES | Potency |
| --- | --- |
| Cc1cc(Nc2cccc(F)c2)nc(N2CCOCC2)n1 | active: 3.55 µM |
| CC(C)COc1ccc(C(=O)CCN2CCCCC2)cc1 | inconclusive [inhibitor, single point] |
| COc1ccc(C)cc1NC(=O)C(NC(=O)c1cc(OC)c(OC)c(OC)c1)C(C)C (centres undefined) | inconclusive [inhibitor, single point] |
| COC(=O)c1c(NC(=O)CN2CCC3(O)CCCCC3C2c2ccc(OC)cc2OC)sc(C)c1C (centres undefined) | inconclusive [inhibitor, partial curve, poor fit] |
| COc1cc(C(=S)N2CCOCC2)ccc1OC(=O)c1cccc(C)c1 | inconclusive [inhibitor, single point] |
| O=C(Nc1ccncc1)C1CC1c1ccccc1 (centres undefined) | inconclusive [inhibitor, single point] |
| CC(=NNc1ccc([N+](=O)[O-])cn1)c1ccccc1 | inconclusive [inhibitor, single point] |
| COC(=O)c1cccc(NC(=O)c2cccnc2C(=O)O)c1C | inactive |
| Cc1c(C)c2ccc(OCC(=O)Nc3ccccc3C(N)=O)cc2oc1=O | inactive |
| Cc1ccc(C)c(NC(=O)c2cc(-c3cc(C)cc(C)c3O)n[nH]2)c1 | inconclusive [inhibitor, partial curve] |
| CCCN(CCC)c1nc2ccccc2n2c(C)nnc12 | active: 3.16 µM |
| CCCc1cc(C(=O)N/N=C/c2ccc(C)o2)c2ccccc2n1 | inconclusive [inhibitor, partial curve] |
| COC(=O)c1sc(S(=O)(=O)N2CCN(c3ccccc3)CC2)c(C(=O)OC)c1C | inactive |
| O=C1CCN(Cc2nc(-c3ccc(Cl)cc3)no2)CCN1 | inconclusive [inhibitor, single point] |
| COc1cc(OC)c2c(-c3ccccc3)cc(=O)oc2c1C(CCN1CCOCC1)c1ccc(N(C)C)cc1 (centres undefined) | inconclusive [inhibitor, single point] |
| CCCc1cc(C(=O)Nc2cccc([N+](=O)[O-])c2)cs1 | inconclusive [inhibitor, single point] |
| O=C(CCc1ccc(Oc2cc([N+](=O)[O-])cc([N+](=O)[O-])c2)cc1)N1CCCCC1 | inconclusive [inhibitor, single point] |
| O=C(NCc1cccs1)C1CCN(S(=O)(=O)N2CCCC2)CC1 | inactive |
| O=C(NCCCN1CCN(c2ccc(F)cc2)CC1)NC12CC3CC(CC(C3)C1)C2 | inconclusive [inhibitor, partial curve] |
